Assay results: EPA's CvTdb concentration-time database

Experiments:
Mouse [1] = assay: concentration in plasma after dosing; conditions: 1 h; dosed: Benzophenone; 15 mg/kg; iv; Male; B6C3F1
Mouse [2] = assay: concentration in plasma after dosing; conditions: 6 h; dosed: Benzophenone; 60 mg/kg; oral; Female; B6C3F1
Rat [3] = assay: concentration in plasma after dosing; conditions: dosed: Benzophenone, 5 mg/kg, oral, Female, F344
Mouse [4] = assay: concentration in plasma after dosing; conditions: 1 h; dosed: Benzophenone; 30 mg/kg; oral; Male; B6C3F1
Mouse [5] = assay: concentration in plasma after dosing; conditions: 0.75 h; dosed: Benzophenone; 15 mg/kg; iv; Female; B6C3F1
Mouse [6] = assay: concentration in plasma after dosing; conditions: 0.25 h; dosed: Benzophenone; 15 mg/kg; iv; Female; B6C3F1
Mouse [7] = assay: concentration in plasma after dosing; conditions: 2.5 min; dosed: Benzophenone; 15 mg/kg; oral; Female; B6C3F1
Mouse [8] = assay: concentration in plasma after dosing; conditions: 2.5 min; dosed: Benzophenone; 30 mg/kg; oral; Female; B6C3F1
Mouse [9] = assay: concentration in plasma after dosing; conditions: 5 min; dosed: Benzophenone; 15 mg/kg; oral; Female; B6C3F1
Mouse [10] = assay: concentration in plasma after dosing; conditions: 20 min; dosed: Benzophenone; 15 mg/kg; iv; Female; B6C3F1
Mouse [11] = assay: concentration in plasma after dosing; conditions: 5 min; dosed: Benzophenone; 30 mg/kg; oral; Male; B6C3F1
Mouse [12] = assay: concentration in plasma after dosing; conditions: 1.5 h; dosed: Benzophenone; 15 mg/kg; iv; Female; B6C3F1
Rat [13] = assay: concentration in plasma after dosing; conditions: dosed: Benzophenone, 5 mg/kg, oral, Male, F344
Rat [14] = assay: concentration in plasma after dosing; conditions: dosed: Benzophenone, 10 mg/kg, oral, Female, F344
Mouse [15] = assay: concentration in plasma after dosing; conditions: 3 h; dosed: Benzophenone; 60 mg/kg; oral; Male; B6C3F1
Mouse [16] = assay: concentration in plasma after dosing; conditions: 0.5 h; dosed: Benzophenone; 60 mg/kg; oral; Male; B6C3F1
Rat [17] = assay: concentration in blood after dosing; conditions: 0.25 h; dosed: Benzophenone; 10 mg/kg; oral; Male; F344
Rat [18] = assay: concentration in blood after dosing; conditions: 10 min; dosed: Benzophenone; 5 mg/kg; oral; Female; F344
Mouse [19] = assay: concentration in plasma after dosing; conditions: 10 min; dosed: Benzophenone; 15 mg/kg; oral; Male; B6C3F1
Mouse [20] = assay: concentration in plasma after dosing; conditions: 0.5 h; dosed: Benzophenone; 15 mg/kg; oral; Female; B6C3F1
Rat [21] = assay: concentration in blood after dosing; conditions: 0.5 h; dosed: Benzophenone; 10 mg/kg; oral; Female; F344
Mouse [22] = assay: concentration in plasma after dosing; conditions: 0.125 h; dosed: Benzophenone; 30 mg/kg; oral; Male; B6C3F1
Mouse [23] = assay: concentration in plasma after dosing; conditions: 0.5 h; dosed: Benzophenone; 60 mg/kg; oral; Female; B6C3F1
Mouse [24] = assay: concentration in plasma after dosing; conditions: 0.25 h; dosed: Benzophenone; 60 mg/kg; oral; Female; B6C3F1
Mouse [25] = assay: concentration in plasma after dosing; conditions: 3 h; dosed: Benzophenone; 30 mg/kg; oral; Male; B6C3F1
Mouse [26] = assay: concentration in plasma after dosing; conditions: 2 h; dosed: Benzophenone; 60 mg/kg; oral; Female; B6C3F1
Mouse [27] = assay: concentration in plasma after dosing; conditions: 3 h; dosed: Benzophenone; 30 mg/kg; oral; Male; B6C3F1; remark: listed apart in the source
Mouse [28] = assay: concentration in plasma after dosing; conditions: 5 min; dosed: Benzophenone; 60 mg/kg; oral; Male; B6C3F1
Mouse [29] = assay: concentration in plasma after dosing; conditions: 2 h; dosed: Benzophenone; 30 mg/kg; oral; Male; B6C3F1
Mouse [30] = assay: concentration in plasma after dosing; conditions: 6 h; dosed: Benzophenone; 30 mg/kg; oral; Female; B6C3F1
Mouse [31] = assay: concentration in plasma after dosing; conditions: 2.5 h; dosed: Benzophenone; 15 mg/kg; iv; Male; B6C3F1
Rat [32] = assay: concentration in blood after dosing; conditions: 10 min; dosed: Benzophenone; 10 mg/kg; oral; Male; F344
Mouse [33] = assay: concentration in plasma after dosing; conditions: 0.25 h; dosed: Benzophenone; 30 mg/kg; oral; Male; B6C3F1
Rat [34] = assay: concentration in plasma after dosing; conditions: dosed: Benzophenone, 10 mg/kg, oral, Male, F344
Mouse [35] = assay: concentration in plasma after dosing; conditions: 20 min; dosed: Benzophenone; 15 mg/kg; iv; Female; B6C3F1; remark: listed apart in the source
Mouse [36] = assay: concentration in plasma after dosing; conditions: 2.5 min; dosed: Benzophenone; 15 mg/kg; oral; Female; B6C3F1; remark: listed apart in the source
Rat [37] = assay: concentration in blood after dosing; conditions: 10 min; dosed: Benzophenone; 10 mg/kg; oral; Female; F344
Rat [38] = assay: concentration in plasma after dosing; conditions: dosed: Benzophenone, 5 mg/kg, oral, Male, F344; remark: listed apart in the source
Mouse [39] = assay: concentration in plasma after dosing; conditions: 5 min; dosed: Benzophenone; 15 mg/kg; oral; Female; B6C3F1; remark: listed apart in the source
Mouse [40] = assay: concentration in plasma after dosing; conditions: 5 min; dosed: Benzophenone; 60 mg/kg; oral; Male; B6C3F1; remark: listed apart in the source
Mouse [41] = assay: concentration in plasma after dosing; conditions: 2.5 min; dosed: Benzophenone; 15 mg/kg; oral; Male; B6C3F1
Mouse [42] = assay: concentration in plasma after dosing; conditions: 1 h; dosed: Benzophenone; 15 mg/kg; iv; Female; B6C3F1
Mouse [43] = assay: concentration in plasma after dosing; conditions: 0.25 h; dosed: Benzophenone; 30 mg/kg; oral; Female; B6C3F1

For `O=C(c1ccccc1)c1ccccc1` [Benzophenone], the concentration in plasma (Mouse [1]) was 463 ng/mL, the concentration in plasma (Mouse [2]) was 80.5 ng/mL and the concentration in plasma (Rat [3]; 2.5 min) was 22 ng/mL. It also gave a concentration in plasma (Rat [3]; 1 h) of 169 ng/mL, a concentration in plasma (Mouse [4]) of 319 ng/mL and a concentration in plasma (Mouse [5]) of 587 ng/mL. For the same compound, the concentration in plasma (Mouse [6]) was 2110 ng/mL, the concentration in plasma (Mouse [7]) was 227 ng/mL and the concentration in plasma (Mouse [8]) was 1340 ng/mL. The concentration in plasma (Mouse [9]) was 294 ng/mL, the concentration in plasma (Mouse [10]) was 1610 ng/mL and the concentration in plasma (Mouse [11]) was 537 ng/mL. For the same compound, the concentration in plasma (Mouse [12]) was 213 ng/mL, the concentration in plasma (Rat [13]; 0.125 h) was 132 ng/mL and the concentration in plasma (Rat [13]; 3 h) was 69.3 ng/mL. For the same compound, the concentration in plasma (Rat [14]; 0.5 h) was 414 ng/mL, the concentration in plasma (Rat [14]; 10 h) was 76.7 ng/mL and the concentration in plasma (Mouse [15]) was 121 ng/mL. For the same compound, the concentration in plasma (Mouse [16]) was 1610 ng/mL, the concentration in blood (Rat [17]) was 1280 ng/mL and the concentration in blood (Rat [18]) was 1260 ng/mL. It also gave a concentration in plasma (Mouse [19]) of 211 ng/mL, a concentration in plasma (Mouse [20]) of 245 ng/mL and a concentration in blood (Rat [21]) of 1800 ng/mL. For the same compound, the concentration in plasma (Mouse [22]) was 1820 ng/mL, the concentration in plasma (Mouse [23]) was 913 ng/mL and the concentration in plasma (Mouse [24]) was 31100 ng/mL. For the same compound, the concentration in plasma (Mouse [25]) was 69.9 ng/mL, the concentration in plasma (Mouse [26]) was 634 ng/mL and the concentration in plasma (Mouse [27]) was 57 ng/mL. It also gave a concentration in plasma (Mouse [28]) of 6330 ng/mL, a concentration in plasma (Mouse [29]) of 121 ng/mL and a concentration in plasma (Mouse [30]) of 26.7 ng/mL. It also gave a concentration in plasma (Mouse [31]) of 71.2 ng/mL, a concentration in blood (Rat [32]) of 1410 ng/mL and a concentration in plasma (Mouse [33]) of 990 ng/mL. The concentration in plasma (Rat [34]; 0.25 h) was 474 ng/mL, the concentration in plasma (Rat [34]; 24 h) was 43.5 ng/mL and the concentration in plasma (Mouse [35]) was 1680 ng/mL. The concentration in plasma (Mouse [36]) was 63.8 ng/mL, the concentration in blood (Rat [37]) was 1520 ng/mL and the concentration in plasma (Rat [38]; 2.5 min) was 34.3 ng/mL. It also gave a concentration in plasma (Rat [38]; 1 h) of 144 ng/mL, a concentration in plasma (Mouse [39]) of 597 ng/mL and a concentration in plasma (Mouse [40]) of 5330 ng/mL. It also gave a concentration in plasma (Mouse [41]) of 261 ng/mL, a concentration in plasma (Mouse [42]) of 412 ng/mL and a concentration in plasma (Mouse [43]) of 635 ng/mL.
